# PubChem BioAssay AID1508624 (National Center for Advancing Translational Sciences (NCATS), 2021)
# Among all 48,000 compounds or so, about 120 (0.25%) were called active. About 4% were inconclusive and are not listed. Calls follow the shape of the dose curve; as a rule, active = well fitted activation curve with a large enough effect; inconclusive = small, poorly fitted or top-dose-only effect, or another doubt; inactive = no such curve, though single readings can be large or run the other way. Some of the results follow.
# Experiment: Primary qHTS for Identification of Small Molecule Activators of Huntingtin-Antisense Promoter Activity; also: nearly all actives have a fitted effect of over 55% in size
# Settings: HEK293 HTT-AS promoter firefly luciferase reporter, 24 h; series mostly up to 57.5 µM; activity change, positive = activation: at the top concentration
# How it was run: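 Quantitative HTS used concentration series of up to 57.5 uM final on HEK293 luciferase reporter cells, 24 h at 37 degrees C. Readout was Dual-Glo firefly luminescence.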
row,Compound,"activity change, positive = activation"
1,CCOC(=O)c1cccc(-n2nnc3c(sc4nc(C)c(Br)c(C)c43)c2=O)c1,inactive: 0.793%
2,O=C(Nc1ccc(Br)cc1F)c1cc(S(=O)(=O)NC2CCCC2)ccc1F,inactive: -21.7%
3,Cn1c(=O)c2c(nc(Oc3ccc(C#N)cc3)n2Cc2ccc(Cl)cc2Cl)n(C)c1=O,inactive: -13.5%
4,CCOC(=O)c1ccccc1NC(=O)Cn1c(=O)n(CCC(=O)NCc2ccccc2OC)c(=O)c2ccccc21,inactive: -7.2%
5,O=C(Nc1ccc(F)cc1)N1CCN(c2ccc3nnc(-c4ccc(F)cc4)n3n2)CC1,inactive: -23.5%
6,Cc1ccc(-n2nnc(-c3nsc(NC(=O)c4ccccc4C)n3)c2C)cc1Cl,inactive: 4.25%
7,CCOc1ccc(Nc2c(S(=O)(=O)c3ccc(Cl)cc3)cnc3ccc(OC)cc23)cc1,inactive: -28.4%
8,Cc1ccc(CNC(=O)C2CCN(C(=O)c3ccc(-n4ccc5ccccc54)s3)CC2)cc1,inactive: -10.7%
9,COc1ccc(-c2c3c(=O)n(C)c(=O)n(C)c3cn2-c2cccc(N)c2)cc1,inactive: -5.51%
10,CCOC(=O)CC(NC(=O)CCc1c(C)nc2c(-c3ccccc3)c(C)nn2c1C)c1ccc(C)cc1 (configuration not stated),inactive: -45.5%
11,COc1ccc(Cn2ccc3nc(C)c(C(=O)Nc4ccc(F)cc4)cc3c2=O)cc1,inactive: -19.6%
12,COCCCNC(=O)c1[nH]c2cc(OC)ccc2c1Sc1ccc(C)cc1,inactive: 3.98%
13,CCn1cc(C(=O)NCCc2ccc(Cl)cc2)c(=O)c2cc(S(=O)(=O)N3CCc4ccccc4C3)ccc21,inactive: -4.04%
14,COc1ccccc1NC(=O)c1oc2ccccc2c1NC(=O)C(C)C,inactive: 11.1%
15,Cc1cccc(NC(=O)CSc2nnc3scc(-c4ccccc4)n23)c1,inactive: -11.1%
16,O=C1CCc2cc(S(=O)(=O)NCc3ccc(Cl)cc3)cc3c2N1CC3,inactive: -2.16%
17,COc1cccc(-c2nnc(-c3cc4cc(Cl)ccc4oc3=O)o2)c1,"inactive: 7.45% [at 11.5 µM, percent change from vehicle, -100% = no light]"
18,CN(C)CCN1CCN(c2cccc(Cl)c2)C1=O,inactive: 0.241%
19,COc1cc(-c2noc(CSc3nc(-c4ccc(F)cc4)cc(=O)[nH]3)n2)cc(OC)c1OC,inactive: -13.1%
20,COc1ccccc1NC(=O)Cn1cnc2c(nc3n2CCCCC3)c1=O,inactive: 4.12%
21,CCC1CCC(C(=O)NC(C(=O)NCCN(CC(C)C)CC(C)C)C(C)C)CC1 (configuration not stated),inactive: -2.75%
22,Cc1ccccc1CNC(=O)c1ccccc1NC(=O)c1nsc2ccccc12,inactive: 12.3%
23,CC(C)(C)c1ccc(CSc2nc3c(c(=O)[nH]2)CCCC3)cc1,inactive: -32.2%
24,O=C(Nc1ccc(Cl)c(C(F)(F)F)c1)C1CCCN(S(=O)(=O)c2cccc3cccnc23)C1 (configuration not stated),inactive: 2.65%

row,Compound,"activity change, positive = activation"
1,CC1CCN(S(=O)(=O)c2ccc3c(c2)c(=O)c(C(=O)NCc2ccc(Cl)cc2)cn3C)CC1,"inactive: 4.25% [at 11.5 µM, percent change from vehicle, -100% = no light]"
2,O=c1c(N2CCN(c3cccc(C(F)(F)F)c3)CC2)csc2ccccc12,inactive: -23.1%
3,Clc1ccccc1Cn1cccc1C1=NC(Cc2ccccc2)CO1 (configuration not stated),inactive: -8.72%
4,Cn1c(SCC(N)=O)nc2c([nH]c3ccccc32)c1=O,inactive: 13.3%
5,O=C(O)c1ccc(Nc2nc(-c3ccccc3)c3cc(Br)ccc3n2)cc1,inactive: -38.3%
6,Cc1cccc(NC(=O)CSc2nc3ccc(NC(=O)COc4ccc(Cl)cc4)cc3s2)c1,inactive: -39.5%
7,Cc1c(NC(=O)Cc2ccc(F)cc2)cccc1-c1nc2cccnc2s1,inactive: -15.8%
8,Fc1ccc(-c2nc(-c3cccs3)c(-c3cccs3)[nH]2)cc1,inactive: -27.4%
9,Cc1nn(-c2ccccc2)c2c1N(CC(=O)NCc1ccc(N(C)C)cc1)C(=O)CS2,inactive: -10.7%
10,O=C(Nc1nnc(SCc2cc(=O)c3ccccc3[nH]2)s1)c1ccccc1,inactive: -33.7%
11,O=C(NCCOCCO)C(=O)Nc1c2c(nn1-c1ccc(F)cc1)CSC2,inactive: -13.3%
12,Cc1ccc2cc3cc(C(=O)N4CCN(c5cccc(C(F)(F)F)c5)CC4)sc3nc2c1,inactive: 0.558%
13,CCC(=O)N1CCc2cc(S(=O)(=O)CCC(=O)N3CCN(c4ccccc4Cl)CC3)ccc21,inactive: -4.32%
14,CN(c1ncnc2c1c(-c1ccccc1)cn2-c1ccc(F)cc1)C1CCCCC1,inactive: -17.5%
15,CCOC(=O)c1cc(-c2ccccc2)n(CCC(=O)Nc2ccc(C(F)(F)F)cc2)c1C,inactive: -40.3%
16,Cc1ccc(N(Cc2cccs2)C(=O)c2ccccc2)cc1,inactive: -34%
17,O=C(NCCn1cc(SCc2cccc(F)c2)c2ccccc21)c1cccc(C(F)(F)F)c1,inactive: -49.5%
18,COc1ccc(CCNC(=O)c2c(C)oc3ncn(C)c(=O)c23)c(OC)c1,inactive: -2.51%
19,CC(=O)Nc1ccc(N(C(=O)Cn2nnc3ccccc32)C(C(=O)NCc2ccccc2)c2ccc(C)cc2)cc1 (configuration not stated),inactive: -18.4%
20,Cc1ccc2[nH]c(=O)c3cc(C(=O)NCCCN4CCC(C)CC4)sc3c2c1,inactive: -16.6%
21,CCN(C(=O)CSc1nc2ccccc2n1Cc1ccc(F)cc1Cl)c1ccccc1,inactive: -21.1%
22,CCOC(=O)C(Cc1c[nH]c2ccccc12)NC(=O)COc1ccc(CC)cc1 (configuration not stated),inactive: -18.5%
23,Cc1cc(NC(=O)CN2CCC(C)CC2)nc2c1c(=O)oc1ccccc12,inactive: 2.01%
